{"source": "PubChem BioAssay AID686979", "about": "(National Center for Advancing Translational Sciences (NCATS), 2013)", "note": "Screen size: about 420,000 compounds; about 50,000 (12%) were called active. Inconclusive means that the source gave no clear call. Such entries were picked first, then a sample of the others. The call rests on the fitted dose curve; in most records, active means well fitted inhibition curve with a large enough effect; inconclusive means small, poorly fitted or top-dose-only effect; inactive means flat fitted curve, though single readings scatter. Potencies of inconclusive entries are left out as doubtful fits. On the % scale 0 is the no-effect control and ±100 the full control effect; potency means the concentration at half of the fitted maximal effect; tags describe the fitted curve by direction and shape."}
{"assay": "qHTS for Inhibitors of human tyrosyl-DNA phosphodiesterase 1 (TDP1): qHTS in cells in presence of CPT; further: nearly all actives have a fitted effect of over 55% in size", "conditions": "chicken DT40 Tdp1-/-;hTDP1 cells + 20 nM CPT, ATP luminescence, 48 h; activity change, negative = growth inhibition: at 46.2 µM (top of the series)", "outline": "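Chicken DT40 Tdp1-/- cells stably complemented with human TDP1 were seeded at 400 cells/well in medium containing 20 nM camptothecin, exposed to pin-transferred compounds, and grown at 37 °C for at least 48 hr. Viability was read as ATP luminescence.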"}
{"smiles": "COC(=O)c1ccc2c(c1)N(Cc1ccccc1)C(=O)c1ccccc1S2(=O)=O", "Potency": "active: 16.4 µM"}
{"smiles": "COc1ccc(S(=O)(=O)c2cnc3ccccc3n2)cc1", "Potency": "inconclusive [inhibitor, single point]"}
{"smiles": "Cn1c(C(=O)OCC(=O)NCc2cccs2)cc2sccc21", "Potency": "inconclusive [inhibitor, partial curve]"}
{"smiles": "C/C(=N\\NC(=O)c1cc(-c2ccc(Br)s2)[nH]n1)c1ccncc1", "Potency": "inactive"}
{"smiles": "Cc1cc([N+](=O)[O-])cc2c1NC(c1ccccn1)C1CC=CC21", "note": "(configuration not stated)", "Potency": "inconclusive [inhibitor, partial curve]"}
{"smiles": "O=C(O)c1ccc(NC(=O)c2ccc(Br)c(S(=O)(=O)N3CCCC3)c2)cc1", "Potency": "inactive"}
{"smiles": "CC(/C=C/c1ccco1)=N/NC(=O)OC(C)(C)C", "Potency": "inconclusive [inhibitor, single point]"}
{"smiles": "Cc1ccc(S(=O)(=O)Nc2ccc(Nc3nccn4c(-c5ccccc5Oc5ccccc5)cnc34)cc2)cc1", "Potency": "inconclusive [inhibitor, partial curve, poor fit]"}
{"smiles": "CCN1CCc2c(sc(NC(=O)c3ccc(S(=O)(=O)N4CCCCCC4)cc3)c2C(=O)NC)C1", "Potency": "inconclusive [inhibitor, single point]"}
{"smiles": "C/C(=N\\NC(=O)c1sccc1C)c1cccnc1", "Potency": "inconclusive [inhibitor, single point]"}
{"smiles": "Cc1cccc(CNC(=O)CN2C(=O)CCn3nc(-c4cn(C)c5ccccc45)cc32)c1", "Potency": "inconclusive [inhibitor, partial curve, poor fit]"}
{"smiles": "CCCC12CN3CC(C)(CN(C1)C3c1ccc(OCc3ccccc3)cc1)C2=O", "note": "(configuration not stated)", "Potency": "inconclusive [inhibitor, single point]"}
{"smiles": "CNc1nc(-c2ccccc2Cl)nc2ccccc12", "Potency": "inactive"}
{"smiles": "Cn1cccc1CNCc1ccccc1Cl", "Potency": "inconclusive [inhibitor, single point]"}
{"smiles": "CC(=O)ON(C(C)=O)c1ccc(/C=C2/C=Cc3ccccc32)cc1", "Potency": "inconclusive [inhibitor, single point]"}
{"smiles": "COc1ccccc1N1CCN(C(=O)c2cc(-c3ccc(Cl)c(Cl)c3)on2)CC1", "Potency": "inconclusive [inhibitor, partial curve]"}
{"smiles": "CCC(=O)N(CC)C1=C(O)c2ccccc2C(=O)C1=O", "Potency": "active: 4.61 µM"}
{"smiles": "O=C1CCC[C@@H]2CC(Nc3ccc(F)cc3F)C[C@@H]3CCN1[C@H]23", "note": "(some centres not stated)", "Potency": "inconclusive [inhibitor, single point]"}
{"smiles": "Cc1ccc(SCc2nc(-c3ccc(C(=O)NCC(C)c4ccccc4)cc3)oc2C)cc1", "note": "(configuration not stated)", "Potency": "active: 8.2 µM"}
{"smiles": "CCOc1ccc(-c2cn(-c3ccccc3OC)c(=S)[nH]2)cc1", "Potency": "inconclusive [inhibitor, single point]"}
{"smiles": "Cc1cc(C(=O)CSc2ccc(F)cc2)cc(C)c1OC(=S)N(C)C", "Potency": "inconclusive [inhibitor, single point]"}
{"smiles": "CCCC(c1nnnn1CC(=O)OCC)N(Cc1cc2ccc(C)cc2[nH]c1=O)C1CCCC1", "note": "(configuration not stated)", "Potency": "inactive"}
{"smiles": "CC(C)(C)c1cc(C(=O)NCc2ccccc2)ccn1", "Potency": "active: 13 µM"}
{"smiles": "Cc1cc(Cl)ccc1C(=O)C1CCCN(C(=O)c2ccoc2)C1", "note": "(configuration not stated)", "Potency": "inconclusive [inhibitor, partial curve]"}
{"smiles": "CC(C)[C@H]1COCCS(=O)(=O)N1Cc1ccccc1-c1ccc(F)cc1", "Potency": "inconclusive [inhibitor, single point]"}
{"smiles": "Clc1ccc(CN2CCc3c([nH]c4ccccc34)C2)cc1Cl", "Potency": "inconclusive [inhibitor, single point]"}
{"smiles": "Cc1ccc(S(=O)(=O)N2CCCCC2)cc1C(=O)Nc1ccccn1", "Potency": "inactive"}
{"smiles": "O=C(COc1coc(CN2CCc3ccccc32)cc1=O)N1CCCCC1", "Potency": "inactive"}
{"smiles": "CCOC(=O)c1cc(-c2cc(OC)c(OC)c(OC)c2)nc2c1c(=O)[nH]c(=O)n2Cc1ccccc1", "Potency": "inconclusive [inhibitor, single point]"}
{"smiles": "C[C@@H]1CN([C@H](C)CO)C(=O)CCCn2cc(nn2)CO[C@H]1CN(C)C(=O)Nc1ccnc(N2CCOCC2)c1", "Potency": "inactive"}
{"smiles": "CC1CN(S(=O)(=O)c2cccc(C(=O)NCC(c3cccs3)N3CCOCC3)c2)CC(C)O1", "note": "(configuration not stated)", "Potency": "inactive"}
{"smiles": "Cc1ccc2c(nc3s/c(=C\\c4ccc(-c5ccccc5C(=O)O)o4)c(=O)n32)c1C", "Potency": "inconclusive [inhibitor, single point]"}
{"smiles": "N/C(=N\\OC(=O)CSc1ccccc1)c1ccccn1", "Potency": "inactive"}
{"smiles": "COc1cccc(/C=C(/C(=O)OCC(N)=O)c2ccccc2)c1", "Potency": "inactive"}
{"smiles": "O=C(O)c1ccc(-n2ncc(Cl)c(Cl)c2=O)cc1", "Potency": "active: 6.51 µM"}
{"smiles": "COc1ccc(NC(=S)Nc2ccc(N)c([N+](=O)[O-])c2)cc1", "activity change, negative = growth inhibition": "inconclusive: -37.2% [inhibitor]"}
{"smiles": "O=C(C[C@@H]1C[C@@H]2c3cc(NC(=O)C4CCC4)ccc3O[C@@H]2[C@@H](CO)O1)NCc1ccc(Cl)cc1", "Potency": "inconclusive [inhibitor, single point]"}
{"smiles": "O=C(C1CCC(CNS(=O)(=O)c2ccccc2)CC1)N1CCOCC1", "note": "(configuration not stated)", "Potency": "inactive"}
{"smiles": "Cc1cccc(CNC(=O)CN2C(=O)CSc3c2c(C)nn3-c2ccccc2)c1", "Potency": "inconclusive [inhibitor, single point]"}
{"smiles": "COc1ccccc1NC(=O)c1ccc2[nH]c(C)c(C)c2c1", "Potency": "inconclusive [inhibitor, single point]"}
{"smiles": "O=C1CC2(CCN1)CCN(Cc1ccccc1)CC2", "Potency": "inactive"}
{"smiles": "CCC(=O)N1CCC1(C)C(=O)Nc1ccc(OC(F)F)cc1", "note": "(configuration not stated)", "Potency": "inactive"}
{"smiles": "Cc1ccc(F)cc1C(=O)N1CCCCC1c1cc(C(=O)Nc2cccc(C#N)c2)no1", "note": "(configuration not stated)", "Potency": "active: 29.1 µM"}
{"smiles": "Cc1ccc(-c2cc(C(=O)N3CCN(c4ncccn4)CC3)c3cc(Br)ccc3n2)o1", "Potency": "active: 4.11 µM"}
{"smiles": "CC(=O)c1cc(-c2ccc(F)cc2)n(CCC(=O)Nc2nc3ccc(C)cc3s2)c1C", "Potency": "active: 25.9 µM"}
{"smiles": "O=C(O)c1cc(Cl)c(Cl)cc1C(=O)NCc1ccco1", "Potency": "inactive"}
{"smiles": "COc1cc(OC)cc(Oc2ccc(S(=O)(=O)N3CCCCC3)cc2[N+](=O)[O-])c1", "Potency": "inconclusive [inhibitor, single point]"}
